# Source: a collection of fitness landscapes (doi:10.1126/science.1257360)
# Some of the results follow.
# B1: PhoQ; a variant is named by its letters at X, in order, P23837 (parent)
# chain: MKKLLRLFFPLSLRVRFLLATAAVVLVLSLAYGMVALIGYSVSFDKTTFRLLRGESNLFYTLAKWENNKLHVELPENIDKQSPTMTLIYDENGQLLWAQRDVPWLMKMIQPDWLKSNGFHEIEADVNDTSLLLSGDHSIQQQLQEVREDDDDAEMTHSVAVNVYPATSRMPKLTIVVVDTIPVELKSSYMVWSWFIYVLSANLLLVIPLLWVAAWWSLRPIEALAKEVRELEEHNRELLNPATTRELTSLVRNLNRLLKSERERYDKYRTTLTDLTHSLKTPLXXLQXXLRSLRSEKMSVSDAEPVMLEQISRISQQIGYYLHRASMRGGTLLSRELHPVAPLLDNLTSALNKVYQRKGVNISLDISPEISFVGEQNDFVEVMGNVLDNACKYCLEFVEISARQTDEHLYIVVEDDGPGIPLSKREVIFDRGQRVDTLRPGQGVGLAVAREITEQYEGKIVAGESMLGGARMEVIFGRQHSAPKDE
# Variants of: B1
# Experiment: enrichment ratio after two sorts for PhoP signalling (ratio (wild type AVST 3.29)); higher = more functional
# Settings: with PhoP (E. coli)
row,Variant,enrichment ratio
1,WGKN,≤ 0.25
2,IDRH,≤ 0.25
3,IYRA,≤ 0.25
4,WPVA,≤ 0.25
5,VKIE,≤ 0.25
6,KLMF,≤ 0.25
7,DCMD,≤ 0.25
8,HNMV,≤ 0.25
9,YFHN,≤ 0.25
10,HHDL,≤ 0.25
11,KAWP,≤ 0.25
12,SDWW,≤ 0.25
13,GESQ,4.33
14,NIDH,≤ 0.25
15,ECIS,≤ 0.25
16,NYQF,≤ 0.25
17,RHED,≤ 0.25
18,AMCA,19.4
19,YHNW,≤ 0.25
20,MEAN,32.4
21,SIVW,≤ 0.25
22,HGIM,3.13
23,QFND,≤ 0.25
24,RPMC,≤ 0.25
25,FTDK,≤ 0.25
26,EFHI,≤ 0.25

row,Variant,enrichment ratio
1,HPNF,≤ 0.25
2,ADID,≤ 0.25
3,PSVQ,≤ 0.25
4,WHYC,≤ 0.25
5,EMDS,≤ 0.25
6,RFRN,≤ 0.25
7,IYVD,≤ 0.25
8,SVPT,≤ 0.25
9,NHMI,≤ 0.25
10,HMLR,≤ 0.25
11,WTVK,≤ 0.25
12,SIAE,1.19
13,PACI,≤ 0.25
14,FFAS,≤ 0.25
15,ASLR,3.29
16,FLCR,≤ 0.25
17,FMAG,≤ 0.25
18,WNYS,≤ 0.25
19,GIHQ,≤ 0.25
20,RWCL,≤ 0.25
21,HHCR,≤ 0.25
22,PYCP,≤ 0.25
23,WMQL,≤ 0.25
24,CSYH,≤ 0.25
25,GRML,≤ 0.25
26,RDCW,≤ 0.25

row,Variant,enrichment ratio
1,NTPH,≤ 0.25
2,TSHL,8.01
3,PGAD,≤ 0.25
4,RRPE,≤ 0.25
5,NLTE,≤ 0.25
6,KFML,≤ 0.25
7,DPWE,≤ 0.25
8,GMNP,≤ 0.25
9,YDTE,≤ 0.25
10,PTKG,≤ 0.25
11,CPPS,≤ 0.25
12,FQHN,≤ 0.25
13,SAEL,≤ 0.25
14,FWWE,≤ 0.25
15,DRNI,≤ 0.25
16,SYFW,≤ 0.25
17,MSCI,16.7
18,QMAL,0.702
19,KCWF,≤ 0.25
20,TQSL,8.69
21,WYCW,≤ 0.25
22,NKPV,≤ 0.25
23,WEKP,≤ 0.25
24,QRQG,≤ 0.25
25,FVST,≤ 0.25
26,WCFF,≤ 0.25

row,Variant,enrichment ratio
1,FIGY,≤ 0.25
2,HTHV,≤ 0.25
3,NHNH,≤ 0.25
4,HHFD,≤ 0.25
5,QALA,1.57
6,PEIR,≤ 0.25
7,GYFT,≤ 0.25
8,VDHN,≤ 0.25
9,EWCL,≤ 0.25
10,SCCW,5.25
11,SHRD,≤ 0.25
12,KIPK,≤ 0.25
13,GRFN,≤ 0.25
14,EEYQ,≤ 0.25
15,FTSS,≤ 0.25
16,QMFN,≤ 0.25
17,DTEK,≤ 0.25
18,FEHF,≤ 0.25
19,VGMT,≤ 0.25
20,RAYC,≤ 0.25
21,FDTQ,≤ 0.25
22,LEDQ,≤ 0.25
23,TMYE,≤ 0.25
24,VRRE,≤ 0.25
25,CSLT,11.7
26,VPCC,≤ 0.25

row,Variant,enrichment ratio
1,KPVI,≤ 0.25
2,WDHL,≤ 0.25
3,EIGL,≤ 0.25
4,PDFK,≤ 0.25
5,PPSH,≤ 0.25
6,ETCK,≤ 0.25
7,KMYE,≤ 0.25
8,TRGD,≤ 0.25
9,HCCQ,≤ 0.25
10,IKDI,≤ 0.25
11,SVNL,≤ 0.25
12,NLCD,≤ 0.25
13,PVLD,≤ 0.25
14,PLKQ,≤ 0.25
15,SVTT,1.43
16,SCGP,≤ 0.25
17,TVPN,≤ 0.25
18,QLYV,≤ 0.25
19,WVPE,≤ 0.25
20,YGHD,≤ 0.25
21,HYAM,≤ 0.25
22,SNRF,≤ 0.25
23,DTIW,≤ 0.25
24,CFNF,≤ 0.25
25,NCVN,≤ 0.25
26,ADHQ,≤ 0.25

row,Variant,enrichment ratio
1,WWFS,≤ 0.25
2,PFAS,≤ 0.25
3,RQTK,≤ 0.25
4,IYFI,≤ 0.25
5,KFAE,≤ 0.25
6,ISPM,≤ 0.25
7,YSMR,≤ 0.25
8,PGYG,≤ 0.25
9,HMFQ,≤ 0.25
10,SASK,≤ 0.25
11,NVCN,≤ 0.25
12,AHSD,≤ 0.25
13,NFWH,≤ 0.25
14,AQDN,≤ 0.25
15,MNHA,≤ 0.25
16,WKEV,≤ 0.25
17,SYFE,≤ 0.25
18,DINL,≤ 0.25
19,AKKN,≤ 0.25
20,TFQS,≤ 0.25
21,YTHE,≤ 0.25
22,HRGV,≤ 0.25
23,SWPN,≤ 0.25
